# Measured values published in US20160152947A1 (BOARD OF REGENTS OF THE UNIVERSITY OF OKLAHOMA, published 2016).
# Tests used:
# [1] = molecular target: MBP-Th-RSPO2-4 Fu1-Fu2 chimera (MBP-Th-RSPO2.22-76-RSPO4.72-138-H6) (human); experiment: TR-FRET competition binding to LGR4 ECD
# Procedure: (§1) HEK293T cells transfected with TOPFLASH firefly luciferase reporter and Renilla luciferase control plasmids were treated with the indicated concentrations of MBP-Th-RSPO Fu1-Fu2 proteins in 1:6 diluted Wnt3a conditioned media. […] (C) AlphaLISA® luminescent proximity assay (BMG Labtech GmbH, Ortenberg, Germany) for ZNRF3 ECD binding. The indicated concentrations of MBP—Th-RSPO Fu1-Fu2 proteins were incubated with 3 nM Biotin-ZNRF3 ECD. Donor and acceptor beads were at 20 μg/ml each. Data shown for panels A-C are representative of at least three independent experiments, each performed in duplicate. The error bars represent the S.E.M. of the experiment. (D, E, F) Vertical scatter plots showing the pECso, Eₘₐₓ, and pK₁ values obtained from replicate independent signaling and LGR4 binding experiments as in panels A and B. The mean values and error bars representing the S.E.M. of the replicates are denoted.
# (§2) The LGR4 ECD binding abilities of the newly purified MBP-Th-RSPO Fu1-Fu2-H₆ proteins were examined in an in vitro LanthaScreen®TR-FRET competition-binding assay (Thermo Fisher Scientific Inc., Rockford, Ill.).
# [2] = molecular target: MBP-Th-RSPO4-1 Fu1-Fu2 chimera (MBP-Th-RSPO4.21-71-RSPO1.78-145-H6) (human); experiment: TR-FRET competition binding to LGR4 ECD
# Procedure: as §1, §2
binder,measurement,setting,value
"MBP-Th-LGR4 LRR1-14 (MBP-Th-hLGR4.23-383-H6) (receptor, range […]; Produced in E. coli; Labeled with amine-reactive terbium chelate in the TR-FRET assay; unlabeled in the AlphaLISA ternary complex assay; also called MBP-Th-LGR4 ECD; LGR4 ECD; not shown: thrombin cut site (Th) linker) [about 200 residues skipped]SLVVLHLHNNKIRSLSQHCFDGLDNLETLDLNYNNLGEFPQAIKALPSLKELGFHSNSISVIPDGAFDGNPLLRTIHLYDNPLSFVGNSAFHNLSDLHSLVIRGASMVQQFPNLTGTVHLESLTLTGTKISSIPNNLCQEQKMLRTLDLSYNNIRDLPSFNGCHALEEISLQRNQIYQIKEGHHHHHH",binding result,[1],binds
same,binding result,[2],binds
